The source of these data is the GPR68 mutational scans of Howard et al. (2025).

Sequences and labels used below:
B1: GPR68, Q15743 (parent)
chain: MGNITADNSSMSCTIDHTIHQTLAPVVYVTVLVVGFPANCLSLYFGYLQIKARNELGVYLCNLTVADLFYICSLPFWLQYVLQHDNWSHGDLSCQVCGILLYENIYISVGFLCCISVDRYLAVAHPFRFHQFRTLKAAVGVSVVIWAKELLTSIYFLMHEEVIEDENQHRVCFEHYPIQAWQRAINYYRFLVGFLFPICLLLASYQGILRAVRRSHGTQKSRKDQIQRLVLSTVVIFLACFLPYHVLLLVRSVWEASCDFAKGVFNAYHFSLLLTSFNCVADPVLYCFVSETTHRDLARLRGACLAFLTCSRTGRAREAYPLGAPEASGKSGAQGEEPELLTKLHPAFQTPNSPGSGGFPTGRLA

Variants of B1 are the subject of series [1]. The series can be described thus: cAMP reporter score (Enrich2 score, wild type = 0); higher = more signal; HEK293T, FACS bins.
In series [2] the parent is B1. The series can be described thus: surface expression score (Enrich2 score, wild type = 0); higher = more signal; HEK293T, FACS bins.

Scores whose standard error is large were omitted. The source holds two more conditions with little spread; they are left out. In variant names, del marks residues removed and ins residues inserted between the two positions. For some assays here: The data file names ogerin without a concentration.

As for T18_I19insGSG, the cAMP reporter score was 0.277 in series [1] (pH 5.5); 0.227 in series [1] (pH 6); 0.541 in series [1] (pH 6, modulator: ogerin); -0.367 in series [1] (pH 6.5, modulator: ogerin). In addition, in series [2], the surface expression score is -0.294.

In the case of I19_Q21del, the cAMP reporter score in series [1] (pH 5.5) is -0.3; in series [1] (pH 6), -0.609; in series [1] (pH 6, modulator: ogerin), -1.63; in series [1] (pH 6.5, modulator: ogerin), -0.467. For the same variant, the surface expression score in series [2] was -1.73.

As for Q21del, the cAMP reporter score in series [1] (pH 5.5) was -1.19; in series [1] (pH 6), -0.778; in series [1] (pH 6, modulator: ogerin), -0.711; in series [1] (pH 6.5, modulator: ogerin) it was -0.801. Besides, in series [2], the surface expression score is 0.458.

As for A24_P25insGSG, the cAMP reporter score is -1.24 in series [1] (pH 5.5); -1.1 in series [1] (pH 6); -1 in series [1] (pH 6, modulator: ogerin); -1.03 in series [1] (pH 6.5, modulator: ogerin). Moreover, the surface expression score in series [2] is -2.87.

Consider V31_L32insGSG, for which the cAMP reporter score was -0.561 in series [1] (pH 5.5); -0.881 in series [1] (pH 6); -1.04 in series [1] (pH 6, modulator: ogerin); -1.35 in series [1] (pH 6.5, modulator: ogerin). Besides, the surface expression score in series [2] was -3.27.

Consider T30_L32del, for which the cAMP reporter score in series [1] (pH 5.5) was -2.05; in series [1] (pH 6), -0.819; in series [1] (pH 6, modulator: ogerin), -1.78; in series [1] (pH 6.5, modulator: ogerin), -1.05. The surface expression score in series [2] was -2.53.

Regarding V27del, the cAMP reporter score was -1.32 in series [1] (pH 5.5); -1.48 in series [1] (pH 6); -1.11 in series [1] (pH 6, modulator: ogerin); -0.939 in series [1] (pH 6.5, modulator: ogerin). Also, the surface expression score in series [2] was -0.959.

With S12_C13del, the cAMP reporter score in series [1] (pH 5.5) is -1.29; in series [1] (pH 6), -0.883; in series [1] (pH 6, modulator: ogerin), -0.696; in series [1] (pH 6.5, modulator: ogerin), -0.752. The surface expression score in series [2] is -1.56.

As to H17A, the cAMP reporter score in series [1] (pH 5.5) is -0.309; in series [1] (pH 6, modulator: ogerin), -0.424; in series [1] (pH 6.5, modulator: ogerin), -0.944. The surface expression score in series [2] worked out at 0.042.

On to H17W, for which the cAMP reporter score was -0.385 in series [1] (pH 5.5); -0.45 in series [1] (pH 6); -0.251 in series [1] (pH 6, modulator: ogerin); -0.478 in series [1] (pH 6.5, modulator: ogerin). Also, in series [2], the surface expression score is 1.49.

On to H17T, for which the cAMP reporter score turned out to be 0.921 in series [1] (pH 5.5); 0.287 in series [1] (pH 6); 1.4 in series [1] (pH 6, modulator: ogerin); 0.517 in series [1] (pH 6.5, modulator: ogerin). Also, the surface expression score in series [2] turned out to be 1.45.

Regarding H17S, the cAMP reporter score in series [1] (pH 5.5) was 0.541; in series [1] (pH 6), -1; in series [1] (pH 6, modulator: ogerin), 0.801; in series [1] (pH 6.5, modulator: ogerin) it was 0.05. Also, in series [2], the surface expression score is 1.31.

On to H17R, for which the cAMP reporter score in series [1] (pH 5.5) is 0.466; in series [1] (pH 6) it was -0.44; in series [1] (pH 6, modulator: ogerin) it was 0.512; in series [1] (pH 6.5, modulator: ogerin), 0.166. In addition, in series [2], the surface expression score came out at 0.69.

With H17N, the cAMP reporter score was -0.174 in series [1] (pH 5.5); -0.556 in series [1] (pH 6); -0.446 in series [1] (pH 6, modulator: ogerin); -0.567 in series [1] (pH 6.5, modulator: ogerin). Moreover, in series [2], the surface expression score came out at 0.31.

In the case of H17E, the cAMP reporter score in series [1] (pH 5.5) was -0.984; in series [1] (pH 6), -1.66; in series [1] (pH 6, modulator: ogerin) it was -1.88; in series [1] (pH 6.5, modulator: ogerin), -1.06. Further, the surface expression score in series [2] was -0.651.

Consider H17Q, for which the cAMP reporter score is -0.04 in series [1] (pH 5.5); -0.846 in series [1] (pH 6); -0.802 in series [1] (pH 6, modulator: ogerin); -0.932 in series [1] (pH 6.5, modulator: ogerin). Further, the surface expression score in series [2] was -0.2.

Turning to H17M, the cAMP reporter score in series [1] (pH 5.5) was -0.51; in series [1] (pH 6), -0.401; in series [1] (pH 6, modulator: ogerin), -0.718; in series [1] (pH 6.5, modulator: ogerin), -0.895. The surface expression score in series [2] was 0.264.

For H17P, the cAMP reporter score in series [1] (pH 5.5) was 1.34; in series [1] (pH 6), -0.274; in series [1] (pH 6, modulator: ogerin) it was -0.326; in series [1] (pH 6.5, modulator: ogerin) it was 0.238. In series [2], the surface expression score was found to be 0.183.

Take H17K: the cAMP reporter score in series [1] (pH 5.5) worked out at 0.482; in series [1] (pH 6) it was 1.22; in series [1] (pH 6, modulator: ogerin), 0.945; in series [1] (pH 6.5, modulator: ogerin), 2.18. Also, the surface expression score in series [2] was found to be 1.22.

As for H17I, the cAMP reporter score was 0.058 in series [1] (pH 5.5); -1.02 in series [1] (pH 6); 0.257 in series [1] (pH 6, modulator: ogerin); -0.516 in series [1] (pH 6.5, modulator: ogerin). Also, the surface expression score in series [2] is 0.429.

For H17C, the cAMP reporter score in series [1] (pH 5.5) is -0.048; in series [1] (pH 6), -0.444; in series [1] (pH 6, modulator: ogerin) it was -0.626; in series [1] (pH 6.5, modulator: ogerin), -0.787. Moreover, the surface expression score in series [2] is -0.715.

As for H17Y, the cAMP reporter score was 0.273 in series [1] (pH 5.5); -0.436 in series [1] (pH 6); 0.045 in series [1] (pH 6, modulator: ogerin); -0.447 in series [1] (pH 6.5, modulator: ogerin). In series [2], the surface expression score was 1.1.

As for H17D, the cAMP reporter score is -0.365 in series [1] (pH 5.5); -0.653 in series [1] (pH 6); -1.73 in series [1] (pH 6, modulator: ogerin); -1.41 in series [1] (pH 6.5, modulator: ogerin). Moreover, the surface expression score in series [2] is -0.494.

H17F: the cAMP reporter score was -0.754 in series [1] (pH 5.5); -1.47 in series [1] (pH 6); -1.17 in series [1] (pH 6, modulator: ogerin); -0.502 in series [1] (pH 6.5, modulator: ogerin). Besides, the surface expression score in series [2] turned out to be 1.34.

Consider H17V, for which the cAMP reporter score in series [1] (pH 5.5) was -0.138; in series [1] (pH 6), -0.474; in series [1] (pH 6, modulator: ogerin) it was -0.341; in series [1] (pH 6.5, modulator: ogerin), -1.03. The surface expression score in series [2] was found to be 0.306.

With H17G, the cAMP reporter score was -0.173 in series [1] (pH 5.5); -1.17 in series [1] (pH 6); -1.31 in series [1] (pH 6, modulator: ogerin); -0.818 in series [1] (pH 6.5, modulator: ogerin). Further, the surface expression score in series [2] is 0.238.

Take H17L: the cAMP reporter score in series [1] (pH 5.5) is -0.508; in series [1] (pH 6), -0.84; in series [1] (pH 6, modulator: ogerin) it was -0.962; in series [1] (pH 6.5, modulator: ogerin), -0.923. The surface expression score in series [2] was determined as 0.016.

As for V31del, the cAMP reporter score is -0.57 in series [1] (pH 5.5); -0.499 in series [1] (pH 6); -1.44 in series [1] (pH 6, modulator: ogerin); -0.841 in series [1] (pH 6.5, modulator: ogerin). The surface expression score in series [2] is -2.17.

On to D16_T18del, for which the cAMP reporter score is -1.12 in series [1] (pH 5.5); -0.528 in series [1] (pH 6); -1.03 in series [1] (pH 6, modulator: ogerin); -1.02 in series [1] (pH 6.5, modulator: ogerin). Further, in series [2], the surface expression score was -1.45.

On to Q21_T22del, for which the cAMP reporter score in series [1] (pH 5.5) was -1.29; in series [1] (pH 6), -1.07; in series [1] (pH 6, modulator: ogerin) it was -1.78; in series [1] (pH 6.5, modulator: ogerin), -0.55. Besides, the surface expression score in series [2] is -0.478.
